The values that follow come from patent publication US8551981B2, “Furo[3,2-d]pyrimidine compounds” (AbbVie Inc., priority 2010, dated 2013).

The target of this experiment is Syk catalytic domain (aa 356-635 with a C-terminal His-tag) (Homo sapiens, UniProt P43405). Description: In vitro Syk kinase activity by trFRET (Syk catalytic domain). The note with it: Syk IC50, class symbols A-D.

Structures are written as SMILES.

On to `NC1CCN(c2nc(Nc3ccc(S(N)(=O)=O)cc3)nc3ccoc23)C1` (stereo not shown) [C.1.1], for which the 50% inhibitory concentration (IC50) (commonly the concentration that gives 50% inhibition) is above 10000 nM. In the case of `CNCC1CCN(c2nc(Nc3ccc(N4CCN(C(C)=O)CC4)cc3)nc3ccoc23)CC1` [C.1.2] it was below 100 nM. In the case of `c1cc2nc(Nc3ccc4cn[nH]c4c3)nc(NC3CCC3)c2o1` [C.1.3] it was below 100 nM; in that of `CC(=O)N1CCN(c2ccc(Nc3nc(N4CCC(CN)CC4)c4occc4n3)cc2)CC1` [C.1.4], below 100 nM. On to `NCC1CCN(c2nc(Nc3ccc4c(c3)CCC(=O)N4)nc3ccoc23)CC1` [C.1.5], for which the IC50 was below 100 nM. In the case of `CC1(C)Oc2ccc(Nc3nc(N4CCC(CN)CC4)c4occc4n3)cc2NC1=O` [C.1.6] it was below 100 nM; in that of `CC(=O)N(C)c1ccc(Nc2nc(N3CCC(CN)CC3)c3occc3n2)cc1` [C.1.7], below 100 nM. In the case of `CCCC(=O)Nc1ccc(Nc2nc(N3CCC(CN)CC3)c3occc3n2)cc1` [C.1.8] it was 100 to 1000 nM; in that of `NCC1CCN(c2nc(Nc3ccc4cn[nH]c4c3)nc3ccoc23)CC1` [C.1.9], below 100 nM. `Clc1cc(Nc2nc(NCC3CCNCC3)c3occc3n2)ccc1N1CCOCC1` [C.1.10]: the 50% inhibitory concentration (IC50) is 100 to 1000 nM.

`c1cc2nc(Nc3ccc(N4CCNCC4)cc3)nc(NC3CC3)c2o1` [C.1.11] came in with an IC50 of 100 to 1000 nM. Consider `c1cc2nc(Nc3ccc(N4CCNCC4)cc3)nc(NC3CCC3)c2o1` [C.1.12], for which the IC50 fell in the range of 100 to 1000 nM. In the case of `NCC1CCN(c2nc(Nc3ccc(N4CCOCC4)c(Cl)c3)nc3ccoc23)CC1` [C.1.13] it was below 100 nM. As for `FC(F)CNCC1CCN(c2nc(Nc3ccc4cn[nH]c4c3)nc3ccoc23)CC1` [C.1.14], the IC50 was below 100 nM. In the case of `FCCNCC1CCN(c2nc(Nc3ccc4cn[nH]c4c3)nc3ccoc23)CC1` [C.1.15] it was below 100 nM. The value for `c1cc2nc(Nc3ccc4cn[nH]c4c3)nc(N3CCC(CNC4COC4)CC3)c2o1` [C.1.16] was 100 to 1000 nM; that for `COCCCNS(=O)(=O)c1ccc(Nc2nc(N3CCC(CN)CC3)c3occc3n2)cc1` [C.1.17] was below 100 nM. The value for `Cn1ncc2cc(Nc3nc(N4CCC(CN)CC4)c4occc4n3)ccc21` [C.1.18] was below 100 nM; that for `CNCc1ncc2n1CCN(c1nc(Nc3ccc4cn[nH]c4c3)nc3ccoc13)C2` [C.1.19] was 100 to 1000 nM; that for `c1cc2nc(Nc3ccc4[nH]ncc4c3)nc(NC3CC3)c2o1` [C.1.20] was below 100 nM. In the case of `CS(=O)(=O)CCNCC1CCN(c2nc(Nc3ccc4cn[nH]c4c3)nc3ccoc23)CC1` [C.1.21], the IC50 lay within 100 to 1000 nM. With `CNCC1CCN(c2nc(Nc3ccc4c(c3)NC(=O)C(C)(C)O4)nc3ccoc23)CC1` [C.1.22], the half-inhibitory concentration (IC50) is below 100 nM.

Take `CNCC1CCN(c2nc(Nc3ccc4cn[nH]c4c3)nc3ccoc23)CC1` [C.1.23]: the half-inhibitory concentration (IC50) was below 100 nM.

`c1nc2ccc(Nc3nc(NC4CC4)c4occc4n3)cc2[nH]1` [C.1.24] yielded an IC50 of 100 to 1000 nM.

Turning to `c1cc2nc(Nc3ccc4c(c3)CCNC4)nc(NC3CC3)c2o1` [C.1.26], the half-maximal inhibitory concentration (IC50) is 100 to 1000 nM.

In turn, `Cc1n[nH]c2cc(Nc3nc(N[C@@H]4CC[C@H](N)C4)c4occc4n3)ccc12` [C.1.27] showed an IC50 of 100 to 1000 nM. The compound `Cc1n[nH]c2cc(Nc3nc(N[C@H]4CC[C@@H](N)C4)c4occc4n3)ccc12` [C.1.28] came in with a half-inhibitory concentration (IC50) of 100 to 1000 nM. The value for `Cc1n[nH]c2cc(Nc3nc(N4CCCC(N)CC4)c4occc4n3)ccc12` (stereo not shown) [C.1.29] was below 100 nM; that for `CC1(C)Oc2ccc(Nc3nc(N4CCCC(N)CC4)c4occc4n3)cc2NC1=O` (stereo not shown) [C.1.30] was below 100 nM; that for `Cc1n[nH]c2cc(Nc3nc(N4CCC(C)(CN)CC4)c4occc4n3)ccc12` [C.1.31] was below 100 nM. Regarding `CC1(CN)CCN(c2nc(Nc3ccc4c(c3)NC(=O)C4(C)C)nc3ccoc23)CC1` [C.1.32], the IC50 is below 100 nM.

`CC1(CN)CCN(c2nc(Nc3ccc4c(c3)NC(=O)C(C)(C)O4)nc3ccoc23)CC1` [C.1.33] showed a half-maximal inhibitory concentration (IC50) below 100 nM. The value for `CC1(C)C(=O)Nc2cc(Nc3nc(N4CCCC(N)CC4)c4occc4n3)ccc21` (stereo not shown) [C.1.34] was below 100 nM; that for `CC1(C)Oc2ccc(Nc3nc(N4CCC5CNCC5C4)c4occc4n3)cc2NC1=O` (stereo not shown) [C.1.35] was 100 to 1000 nM.

`CC1(C)Oc2ccc(Nc3nc(N4CCC5(CCCNC5)C4)c4occc4n3)cc2NC1=O` (stereo not shown) [C.1.36] showed an IC50 below 100 nM. Consider `CC1(C)C(=O)Nc2cc(Nc3nc(N4CCC5(CCCNC5)CC4)c4occc4n3)ccc21` [C.1.37], for which the IC50 is below 100 nM. `CC1(C)C(=O)Nc2cc(Nc3nc(N4CCC5(CCNC5)CC4)c4occc4n3)ccc21` [C.1.38] had an IC50 below 100 nM.

For `COc1cc(Nc2nc(N3CCC4(CCCNC4)CC3)c3occc3n2)ccc1N1CCOCC1` [C.1.39], the half-maximal inhibitory concentration (IC50) was below 100 nM. In turn, `Cn1ncc2cc(Nc3nc(N4CCC5(CCNC5)CC4)c4occc4n3)ccc21` [C.1.40] showed an IC50 below 100 nM.

Take `Clc1cc(Nc2nc(N3CCC4(CCCNC4)CC3)c3occc3n2)ccc1N1CCOCC1` [C.1.41]: the half-inhibitory concentration (IC50) is below 100 nM. In the case of `Cc1cc(Nc2nc(N3CCC4(CCCNC4)CC3)c3occc3n2)ccc1N1CCOCC1` [C.1.42], the IC50 was below 100 nM.

Regarding `Cn1ncc2cc(Nc3nc(N4CCC5(CCCNC5)CC4)c4occc4n3)ccc21` [C.1.43], the concentration for half-maximal inhibition (IC50) was below 100 nM.

For `Clc1cc(Nc2nc(N3CCC4(CCNC4)CC3)c3occc3n2)ccc1N1CCOCC1` [C.1.44], the half-maximal inhibitory concentration (IC50) was below 100 nM. `COc1cc(Nc2nc(N3CCC4(CCNC4)CC3)c3occc3n2)ccc1N1CCOCC1` [C.1.45]: the IC50 was in the range of 100 to 1000 nM. The value for `Cc1cc(Nc2nc(N3CCC4(CCNC4)CC3)c3occc3n2)ccc1N1CCOCC1` [C.1.46] was below 100 nM. For `Cc1n[nH]c2cc(Nc3nc(N4CCC4)c4occc4n3)ccc12` [C.1.47], the IC50 lay within 100 to 1000 nM. In the case of `CNCC1CCN(c2nc(Nc3ccc4c(C)n[nH]c4c3)nc3ccoc23)CC1` [C.1.48] it was below 100 nM; in that of `CNCC1CCN(c2nc(Nc3ccc4c(cnn4C)c3)nc3ccoc23)CC1` [C.1.49], below 100 nM; in that of `NC(=O)[C@H]1[C@@H](Nc2nc(Nc3ccc4cn[nH]c4c3)nc3ccoc23)[C@@H]2C=C[C@H]1C2` [C.1.50], below 100 nM. In the case of `CNCC1CCN(c2nc(Nc3ccc4c(c3)NC(=O)C4(C)C)nc3ccoc23)CC1` [C.1.51] it was below 100 nM; in that of `Cc1n[nH]c2cc(Nc3nc(N[C@@H]4[C@H](C(N)=O)[C@H]5C=C[C@@H]4C5)c4occc4n3)ccc12` [C.1.52], below 100 nM. In the case of `CNCC1CCN(c2nc(Nc3ccc4c(c3)NC(=O)C(C)(C)O4)nc3ccoc23)C1` (stereo not shown) [C.1.53] it was 100 to 1000 nM; in that of `Cc1n[nH]c2cc(Nc3nc(N4CCC(CNCC(F)F)CC4)c4occc4n3)ccc12` [C.1.54], below 100 nM; in that of `c1ccc2c(c1)CCN(c1nc(Nc3ccc4cn[nH]c4c3)nc3ccoc13)C2` [C.1.55], 100 to 1000 nM. `CNCC1CCN(c2nc(Nc3ccc(S(=O)(=O)NCCCOC)cc3)nc3ccoc23)CC1` [C.1.56] registered a 50% inhibitory concentration (IC50) below 100 nM. In the case of `CNCC1CCN(c2nc(Nc3ccc(C(C)(C)C#N)cc3)nc3ccoc23)CC1` [C.1.57] it was below 100 nM; in that of `CC1(C)Oc2ccc(Nc3nc(N4CCC5(CCNC5)CC4)c4occc4n3)cc2NC1=O` [C.1.58], below 100 nM.

As for `CC1(C)Oc2ccc(Nc3nc(N4CCC5(CCCNC5)CC4)c4occc4n3)cc2NC1=O` [C.1.59], the IC50 was below 100 nM. In the case of `Cc1n[nH]c2cc(Nc3nc(N4CCC(CNCCS(C)(=O)=O)CC4)c4occc4n3)ccc12` [C.1.60] it was below 100 nM; in that of `NCC1CCN(c2nc(Nc3ccc4c(c3)NC(=O)CC4)nc3ccoc23)CC1` [C.1.61], below 100 nM; in that of `CC(N)C1CCN(c2nc(Nc3ccc4c(c3)NC(=O)C(C)(C)O4)nc3ccoc23)CC1` (stereo not shown) [C.1.62], below 100 nM. The value for `NCC1CCN(c2nc(Nc3ccc4ccc(=O)[nH]c4c3)nc3ccoc23)CC1` [C.1.63] was below 100 nM; that for `CC1(CN)CCN(c2nc(Nc3ccc4c(c3)NC(=O)C(C)(C)O4)nc3ccoc23)C1` (stereo not shown) [C.1.64] was 100 to 1000 nM.

As to `CCC1(CN)CCN(c2nc(Nc3ccc4c(c3)NC(=O)C(C)(C)O4)nc3ccoc23)CC1` [C.1.65], the IC50 is below 100 nM.

`CC1(C)Oc2ccc(Nc3nc(N4CCC(CN)(CC5CC5)CC4)c4occc4n3)cc2NC1=O` [C.1.66] came in with an IC50 below 100 nM. The value for `CC1(C)Oc2ccc(Nc3nc(N4CCC(CN)(CN)CC4)c4occc4n3)cc2NC1=O` [C.1.67] was below 100 nM; that for `C[C@@H]1CN(c2nc(Nc3ccc4c(c3)NC(=O)C(C)(C)O4)nc3ccoc23)C[C@@H]1CN` [C.1.68] was 100 to 1000 nM. In the case of `CC1(C)Oc2ccc(Nc3nc(N4CCC(CN)(CO)CC4)c4occc4n3)cc2NC1=O` [C.1.69] it was below 100 nM; in that of `Cc1cc(=O)[nH]c2cc(Nc3nc(N4CCC(CN)CC4)c4occc4n3)ccc12` [C.1.70], below 100 nM. The value for `CNCC1CCN(c2nc(Nc3ccc4c(c3)NC(=O)C(C)(C)S4)nc3ccoc23)CC1` [C.1.71] was below 100 nM; that for `Cc1n[nH]c2cc(Nc3nc(N4CCC(CCN)CC4)c4occc4n3)ccc12` [C.1.72] was 100 to 1000 nM; that for `Cc1n[nH]c2cc(Nc3nc(N4CCCC(NCC(F)F)CC4)c4occc4n3)ccc12` (stereo not shown) [C.1.73] was 100 to 1000 nM. `Cc1n[nH]c2cc(Nc3nc(N4CCC(CNCCC(F)(F)F)CC4)c4occc4n3)ccc12` [C.1.74] came in with a concentration for half-maximal inhibition (IC50) below 100 nM.

Consider `CC1(C)Oc2ccc(Nc3nc(N4CC5(CCCNC5)C4)c4occc4n3)cc2NC1=O` [C.1.75], for which the IC50 fell in the range of 100 to 1000 nM.

`CC1(C)Oc2ccc(Nc3nc(N4CCC5(CCNCC5)CC4)c4occc4n3)cc2NC1=O` [C.1.76]: the IC50 was 100 to 1000 nM. As for `CC1(C)Oc2ccc(Nc3nc(N4CCC5(CCNC5)C4)c4occc4n3)cc2NC1=O` (stereo not shown) [C.1.77], the IC50 was in the range of 100 to 1000 nM. `CC1(C)Oc2ccc(Nc3nc(N4CCC5(CCNCC5)C4)c4occc4n3)cc2NC1=O` [C.1.78]: the IC50 was in the range of 100 to 1000 nM. The value for `CC1(C)Oc2ccc(Nc3nc(N4CCC5(CCCNC5)C4)c4occc4n3)cc2NC1=O` (stereo not shown) [C.1.79] was 100 to 1000 nM. The value for `CC1(C)Oc2ccc(Nc3nc(N4CCC5(CCN5)CC4)c4occc4n3)cc2NC1=O` [C.1.80] was 100 to 1000 nM.
